Source: the RNAGym collection of RNA variant scans (doi:10.7554/elife.90254)
Read counts are not given, so values of variants with three or more changes are uncertain.

B1: LINE1-mini (parent)
chain: GGCAGAGCUCAACACAGCGUGGCAAAGUGGCUGUGGCUAGACUGCC

Variants of: B1
Assay: self-cleavage, relative activity (ratio to wild type); higher = more cleavage; in vitro, sequencing; the parent is a self-cleaving ribozyme

| Variant | self-cleavage |
| --- | --- |
| C18U A26G A41G | 0.12 |
| C3A C10U G30A G40A | 0.09 |
| A16C G17U C18U U20C U32G | 0.2 |
| G21U U32C C46U | 0.24 |
| G5A C18U A25C A39U | 0.01 |
| C18U A26C G36C C37A A41C | 0.01 |
| G2C G27U G29U | 0.1 |
| G5A G7A A12C G40C C42G C45U | 0.02 |
| G19A U34C C37G | 0.08 |
| G1A C10U G19C G22A A26C G27C U28C A41C | 0.03 |
| A11G U20G G27C A41G | 0.01 |
| A6C G36C A41G | 0.26 |
| G5A A11U C23U C42U | 0.41 |
| A14C C15U A26U | 0.28 |
| C3U C18G G19U U28A | 0 |
| U20A G22A U28A | 0.39 |
| C8A A14C A41U | 0.08 |
| G19C G33U U34A | 0.06 |
| G1U G2C A11G | 0.01 |
| U9C U34A C37G | 0.03 |
| G5U C8G C13A C15G C18G C23G C42U | 0.02 |
| G19C C23U G36A | 0.02 |
| G5U G29C C42A C46G | 0.14 |
| A11C U32G U38A | 0 |

| Variant | self-cleavage |
| --- | --- |
| G2U G7U U32G A41G | 0.11 |
| A41U C42U C46U | 0.28 |
| A4C C8G U28G | 0.05 |
| C8G G22A A39C | 0.03 |
| G1U G40U C46A | 0.03 |
| G36U G40U G44A | 0.05 |
| G2U A24C C31A A39C U43G C46A | 0 |
| G2C U32A G36C | 0.01 |
| A11G G21U U38G | 0 |
| A24C U38A G44U | 0.12 |
| G1A G5C G44C | 0.09 |
| C3U C13A A16G A26G | 0.02 |
| G1U A4G C23U | 0.14 |
| C3A A14U A16C | 0.04 |
| C3A C23G C31U G40C | 0.18 |
| A4U U34G G36A | 0 |
| C8U G17A A25C C42U | 0.05 |
| G7C C13U A39U | 0.08 |
| U28G G40C C45A | 0.01 |
| A16C G29U U38G | 0.05 |
| G2A A14G U28G G30A C42A | 0.01 |
| G1A C37A A39G | 0.08 |
| U9G A12U C15A G30U G36U | 0 |
| G2C C8U C13A G36C | 0.01 |

| Variant | self-cleavage |
| --- | --- |
| G7C A12G A39U | 0.02 |
| G7U A11G A16C | 0.02 |
| U28A G30A C31U G40U A41C | 0.06 |
| C15G U20G G27C G33A C37G G40A | 0.01 |
| G5U C31A A41U | 0.07 |
| C10A A14C G19C G27A | 0.01 |
| C13U G19C C46U | 0.05 |
| A4U C15A U20C | 0.05 |
| A14G G21C C37U A41G | 0.03 |
| G17A A25C G44A | 0.05 |
| A26U U34C C46A | 0.07 |
| U9A A12G A39U G44A | 0.01 |
| G2A A12G G30U G40C C46U | 0.06 |
| G1A G40C C45U | 0.01 |
| A4G G29C C45A | 0.17 |
| C15G A16C A24G U34A C37A U38A | 0.01 |
| G21U A26G C45A | 0.51 |
| G1C G29U G30A | 0.05 |
| G2U C3A C23U G35C | 0.04 |
| G2U C3A U28A A39U | 0.21 |
| G2C C10U U34A U38C C46U | 0 |
| C18A G21U G22U G35U | 0.01 |
| G1U A4U G5U | 0.11 |
| C10G A11G A12C G33C C45U | 0.01 |

| Variant | self-cleavage |
| --- | --- |
| U20G G21U U34A C37A | 0.01 |
| G5A A6C G19C A26G G40U C45A | 0.01 |
| C3U C8U G21U U32C | 0.39 |
| A6U A14G A24G G30U G36A U43C | 0.02 |
| A6U U9G G17A A26C | 0.08 |
| G19U G33A G40U | 0.03 |
| G5A G17U G21A G35A | 0 |
| C10A A26U A41C G44C | 0.04 |
| G2C A39U G40U | 0.05 |
| G19C C23A G40C | 0.05 |
| G40C C42A C45A | 0.02 |
| A4C G33A U38G G44U | 0.08 |
| C3G A4C U20G C23A A24C G29A C42U G44U | 0.21 |
| C8U G27U G40U | 0.53 |
| G1U G2C A12G G40U | 0.04 |
| G5C A6U C10A A41U U43G | 0.01 |
| A14C G19C A41U C42U | 0.01 |
| A6G G19A G22U G27U G36U | 0.03 |
| G2U C10U A14U G19A | 0 |
| G1A G2U C10U U28C C31U G40A | 0.02 |
| C3A A4C C37U | 0 |
| G22U A24C G29C | 0.64 |
| G1A C3A C8A A41U | 2.62 |
| C10A C18G U20G C23G | 0.02 |

| Variant | self-cleavage |
| --- | --- |
| A14C C37G C45A | 0.04 |
| A6U G21U C45A | 0.35 |
| G7U C8G A14C G35U A41G | 0.09 |
| G1U A6G C13G G29C G33A A41U C46G | 0.01 |
| G1U A6C G17C U28G | 0.06 |
| G33A G36A C42A | 0.07 |
| C8U U9G C10A G19U | 0.02 |
| G1U C8U A14C G22A C42U | 0.04 |
| G1U G5U C31G C46A | 0.03 |
| G21A G22U G40C | 0.21 |
| G1U A11C C15G G19A | 0.01 |
| C15A G19A C46U | 0.04 |
| G19A G36U C42A | 0.07 |
| A6G C10A C15U | 0.01 |
| G2U A12C C15A C46A | 0.01 |
| C18A C23U G36U | 0.04 |
| G2A G21A A39U | 0.78 |
| U9C C10U C15A C18U | 0.02 |
| G2A C13G U32G C37A | 0.04 |
| A4G G17A G36C | 0.01 |
| C18G C31U G36C C42A | 0.01 |
| G2A G17U G44U | 0.16 |
| C15G C23U A24G G35A | 0.05 |
| G1A C10A U28C A39C | 0.06 |

| Variant | self-cleavage |
| --- | --- |
| C8G G17U G29A C31A C46A | 0.02 |
| G1U C8G A24C G27C G33A | 0 |
| G19C G22A G40U C46U | 0.01 |
| G7A A26U G40U A41U U43G | 0.51 |
| C8U C31G A41C | 0.08 |
| G1U G5C C15U U34C | 0.08 |
| C10U C13U A26C C37U | 0 |
| G5U G17C C23A A24U U28A C37U C45A | 0.02 |
| G1C A14C C15U C18G C37U C42U | 0.03 |
| C10A C37G C45G | 0.01 |
| G21C U34G U43A G44C | 0.01 |
| A16C C18G G44C | 0.05 |
| C3U A16G G29U A39U | 0.06 |
| C15A G30A C37G | 0.03 |
| G1U C10G A39G | 0.02 |
| G2A G7A U28A G33C U38C C46G | 0.04 |
| U20C U32C U38A U43G | 0 |
| G2C A4U U20G | 0.03 |
| G5A A26G U38G | 0.03 |
| A25G G27C U28G A39U | 0.1 |
| C23U A24G U32A G33C G36U | 0 |
| A25U G36C G40A | 0.15 |
| C3G C23G U34A | 0.16 |
| G5A U9G C46G | 0.15 |

| Variant | self-cleavage |
| --- | --- |
| G17U C18A G29U C31U C42A | 0.05 |
| G5A A6G C31U C37U A39U A41U | 0.03 |
| G1U A4C U9A C10U C46U | 0.01 |
| G2C A12U G27U | 0.01 |
| G7A C15G G33A C45A | 0.07 |
| A14U G22C U34A | 0.2 |
| A16U C18A C31G C37A U43A | 0.02 |
| A6U A24C G29A C45A | 0.22 |
| G1A C8A C23U | 0.32 |
| A11U G17A U43G | 0.03 |
| A11U U32C U34A | 0.02 |
| G1C G30C C31A | 0.06 |
| C10A A11G C18U U34C C45A | 0.01 |
| U9C C15G G30U | 0.03 |
| C10G C15U U43A | 0.03 |
| G2C G30A C31A | 0.05 |
| G1C G29A G30C | 0.45 |
| C3U C8G A26C | 0.04 |
| G1U G30A G44C | 0.27 |
| G19U G21A G27A | 0.45 |
| G17U C18G G27U | 0.17 |
| G30U C37A A39U | 0.1 |
| C13U A26U C45A | 0.07 |
